Source: patent publication US20180030149A1 (AVEO PHARMACEUTICALS, published 2018)

Molecular target: T1, recombinant human ErbB3 monomeric protein (cleaved rhErbB3) (human, UniProt P21860 partial chain, limits assumed)
T1 construct: Monomer made by protease cleavage of the Fc fusion; also called Monomeric ErbB3
Test: SPR Biacore 37 C; supernatant antibody captured on anti-human Fc, cleaved rhErbB3 injected
Experimental: The analyses were performed at 37° C. using PBS (Invitrogen, Catalog No. 14040-133) containing 0.05% surfactant P20 (Biacore, Catalog No. BR-1000-54) as running buffer.
The antibodies were captured in individual flow cells at a flow rate of […]. Injection time was varied for each antibody to yield an Rₘₐₓ between 30 and 60 RU. […] The dissociation phase was monitored for up to 1200 seconds. The surface was then regenerated with two 60 second injections of Glycine pH 2.25 (made from Glycine pH 2.0 (Biacore, Catalog No. BR-1003-55) and pH 2.5 (Biacore, Catalog No. BR-1003-56)) at […].
Kinetic parameters were determined using the kinetic function of the BIAevaluation software (Biacore) with double reference subtraction. Kinetic parameters for each antibody, kₐ (association rate constant), kd (dissociation rate constant) and KD (equilibrium dissociation constant) were determined.

Row | Kd [nM] | koff [s⁻¹] | kon [M⁻¹ s⁻¹] | Binder
1 | 0.603 | 0.00602 | 9.98e+06 | Sh24C05-32 (antibody, human IgG1, kappa, Humanized, human IgG1/kappa) heavy: EVQLVESGGGLVKPGGSLRLSCAASGFTFSDYAMSWVRQAPGKGLEWVATISDGGTYTYYPDNVKGRFTISRDNAKNSLYLQMNSLRAEDTAVYYCAREWGDYDGFDYWGQGTLVTVSSASTKGPSVFPLAPSSKSTSGGTAALGCLVKDYFPEPVTVSWNSGALTSGVHTFPAVLQSSGLYSLSSVVTVPSSSLGTQTYICNVNHKPSNTKVDKRV[human IgG1 Fc not listed] light: DIQMTQSPSSLSASVGDRVTITCRASQEISGYLSWYQQKPGKAPKLLIYAASTLDSGVPSRFSGSGSGTDFTFTISSLQPEDIATYYCLQYDSYPYTFGQGTKLEIKRTVAAPSVFIFPPSDEQLKSGTASVVCLLNNFYPREAKVQWKVDNALQSGNSQESVTEQDSKDSTYSLSSTLTLSKADYEKHKVYACEVTHQGLSSPVTKSFNRGEC
2 | 0.837 | 0.00434 | 5.18e+06 | Sh24C05-36 (antibody, human IgG1, kappa, Humanized, human IgG1/kappa) heavy: EVQLVESGGGLVQPGGSLRLSCAASGFTFSDYAMSWVRQAPGKGLEWVATISDGGTYTYYPDNVKGRFTISRDNAKNSLYLQMNSLRAEDTAVYYCAREWGDYDGFDYWGQGTLVTVSSASTKGPSVFPLAPSSKSTSGGTAALGCLVKDYFPEPVTVSWNSGALTSGVHTFPAVLQSSGLYSLSSVVTVPSSSLGTQTYICNVNHKPSNTKVDKRV[human IgG1 Fc not listed] light: DIQMTQSPSSLSASVGDRVTITCRASQEISGYLSWYQQKPGKAPKLLIYAASTLDSGVPSRFSGSGSGTDFTFTISSLQPEDIATYYCLQYDSYPYTFGQGTKLEIKRTVAAPSVFIFPPSDEQLKSGTASVVCLLNNFYPREAKVQWKVDNALQSGNSQESVTEQDSKDSTYSLSSTLTLSKADYEKHKVYACEVTHQGLSSPVTKSFNRGEC
